According to PMC10668032:
The list shows a part of the results. At the low end of the ranking the order means little.

Molecular target: SIX1 homeodomain (reference allele) (UniProt Q15475)
Experiment: universal protein binding microarray
Conditions: Universal all-10-mer PBM (8x60K, AMADID 030236), 300 nM GST-tagged protein, Alexa Fluor 488 anti-GST; buffer, salt, pH and temperature not stated; high values mean tight binding; most listed sequences are background and not binding sites; double strand, one strand shown

Row | Sequence | binding signal
1 | AAAACTAA | -0.271 E-score
2 | ACCGACAA | -0.0625 E-score
3 | CGGCTTAG | -0.00357 E-score
4 | GAACGGTC | -0.144 E-score
5 | CGCAGTCA | -0.225 E-score
6 | TCCCGAAA | 0.0475 E-score
7 | AGGGTCCA | 0.000675 E-score
8 | CCCCGAGC | 0.0493 E-score
9 | AGTAGTAT | 0.349 E-score
10 | AACAGCGA | -0.00492 E-score
11 | GAAAGACA | -0.122 E-score
12 | GCTCCTCC | -0.07 E-score
13 | CCAGCCTC | -0.0739 E-score
14 | AGTAAGCC | -0.168 E-score
15 | CATCGATC | 0.118 E-score
16 | ACAATTTA | -0.208 E-score
17 | CCAGTTCA | -0.0641 E-score
18 | GCCTGCCA | -0.309 E-score
19 | GTTGATCA | 0.0755 E-score
20 | TCAGAGGA | 0.0858 E-score
21 | GTTTGATA | 0.379 E-score
22 | CATCTTCG | -0.164 E-score

Row | Sequence | binding signal
23 | CTACCACC | -0.118 E-score
24 | CGTGAAAG | 0.0691 E-score
25 | CTAGCCAA | -0.00352 E-score
26 | AGTATTCA | 0.13 E-score
27 | AAATGAGT | -0.0474 E-score
28 | CGCGACAC | 0.254 E-score
29 | AGGAACGA | -0.217 E-score
30 | ACACTCCC | 0.0165 E-score
31 | CTGCCGAC | 0.0431 E-score
32 | CTGATCCA | 0.357 E-score
33 | GACGAAGC | -0.196 E-score
34 | AATCGTAT | 0.133 E-score
35 | ATGGCGCC | -0.125 E-score
36 | GAACGTTC | -0.241 E-score
37 | CGGGCTGC | -0.3 E-score
38 | CGACTGCC | -0.18 E-score
39 | GGCGTACC | 0.0215 E-score
40 | ACGAATAA | -0.157 E-score
41 | AAAGACGA | -0.107 E-score
42 | CGGATGAG | 0.183 E-score
43 | ACCGATAC | 0.453 E-score
44 | CTGAGTGA | 0.0576 E-score

Row | Sequence | binding signal
45 | GCAATGTA | 0.0375 E-score
46 | GAGCAGAC | -0.243 E-score
47 | CTCTCAGC | -0.155 E-score
48 | ACTCTCTA | -0.129 E-score
49 | ACTGTGGC | -0.0786 E-score
50 | CCCTAATC | 0.0179 E-score
51 | CAATCCAC | 0.168 E-score
52 | AGCCTACA | -0.106 E-score
53 | GGATAGGA | 0.28 E-score
54 | GAACTAGC | -0.134 E-score
55 | ACCTATTG | 0.0963 E-score
56 | ATGGCTTA | -0.0693 E-score
57 | CCCTTTCG | -0.099 E-score
58 | ACCAAGGC | -0.083 E-score
59 | CAGACATG | -0.0513 E-score
60 | CAGTTGAC | -0.0836 E-score
61 | ATGCCACC | 0.0364 E-score
62 | CGTTTAAA | -0.188 E-score
63 | GACAGTGC | -0.12 E-score
64 | AACGCTCT | -0.283 E-score
65 | CGCGTTCA | -0.102 E-score
66 | CTTGCTTC | -0.182 E-score

Row | Sequence | binding signal
67 | GGGCGGAC | -0.174 E-score
68 | AACGTCCA | -0.159 E-score
69 | TGACATCA | -0.156 E-score
70 | AAACCGTC | 0.00316 E-score
71 | GGCCTCCA | -0.213 E-score
72 | AAAGCCAG | -0.106 E-score
73 | GTAGCACA | -0.124 E-score
74 | ACACAGGG | -0.108 E-score
75 | CGACTCGA | -0.129 E-score
76 | GAATATCA | 0.366 E-score
77 | CGATATAC | 0.405 E-score
78 | CGCTCCCG | -0.149 E-score
79 | CCAGCTCG | 0.109 E-score
80 | AGCGTTTG | -0.353 E-score
81 | GCAATTCC | -0.148 E-score
82 | ATTTGGCG | -0.144 E-score
83 | ATCGCTCG | 0.199 E-score
84 | ACCTAACG | -0.0941 E-score
85 | AGATGCTA | 0.113 E-score
86 | ACTCGCCG | -0.101 E-score
